Results as given in the supplement of paper PMC10126150.
Sequences with one replicate were seen in a single cluster, so their values are uncertain.

System: ATP
Assay: switch fluorescence ratio, 500 uM ATP over buffer (Cy3 cluster intensity, sum of 5 cycles each) (fold (ratio)); higher = stronger signal-on switching upon ATP binding; sequences stand for … in TCGTCGGCAGCGTCAGATGTGTATAAGAGACAGTTTTTTTTTTTTTTTTTTTTTTTTT…TC
Conditions: aptamer strand: ATP DNA aptamer (quencher-CACCTGGGGGAGTATTGCGGAGGAAGG + anchor), 100 nM annealed; ATP concentration: 500 uM; one replicate
Outline: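 Switching-strand clusters labelled with Cy3 on a modified Illumina MiSeq flow-cell were annealed to 100 nM quencher-labelled ATP aptamer, imaged in selection buffer, and re-imaged after 15 min with 500 uM ATP at 22 °C. This was done over five cycles with NaOH stripping and re-annealing in between. The fluorescence ratio is summed target-cycle over summed buffer-cycle Cy3 intensity per cluster, averaged per switch-domain sequence, excluding clusters outside 100-1000 RFU.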
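Note: ATP exposure 15 min at 22 °C before imaging.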

Sequence	switch fluorescence ratio
AAAAAACGAG	1.05
AAAAAACTAC	1.14
AAAAACAACC	1.17
AAAAACCATG	1.08
AAAAACCCGG	1.02
AAAAACGCGA	1.32
AAAAACGGGT	1.03
AAAAAGGGA	0.972
AAAAAGTAGG	1.02
AAAAAGTCCT	1.03
AAAAATAGAG	0.995
AAAAATAGGA	0.969
AAAAATGATG	1
AAAAATGGG	0.994
AAAACATCGT	0.984
AAAACATGCG	1.07
AAAACCATCT	1.04
AAAACGATGT	1.02
AAAACGCTC	1.02
AAAACGGAAA	0.94
AAAACGGAGG	0.99
AAAACGGGCA	0.974
AAAACGTTAG	1
AAAACTCGGA	0.953
AAAACTCTAT	1.02

Sequence	switch fluorescence ratio
AAAACTCTTG	1.02
AAAAGAGAGC	1.14
AAAAGCAGTA	1.04
AAAAGCCGTT	1.02
AAAAGCCTGG	1.05
AAAAGCGGGA	0.992
AAAAGGCCCT	1.13
AAAAGGTGT	1.07
AAAAGTCTTA	1.03
AAAAGTGTAC	1.01
AAAAGTTCGG	1.04
AAAAGTTTAG	1.01
AAAATAGGAG	0.996
AAAATCCGGA	1.04
AAAATCTGTA	0.926
AAAATGCCAG	0.97
AAAATGCCTT	0.981
AAAATGGATA	0.98
AAAATTAGAA	1.01
AAAATTTAGT	1.02
AAAATTTTTC	0.987
AAACAAAGGT	1.02
AAACACCCGG	1.11
AAACACTGTT	1.14
AAACAGCCCG	1.03

Sequence	switch fluorescence ratio
AAACAGGCG	1.03
AAACATACAT	1.14
AAACCCGCCG	0.982
AAACCTGCCG	1.23
AAACCTTCAT	1.05
AAACCTTCGG	1.17
AAACGAATCT	1.02
AAACGACCGC	1.21
AAACGACCTT	1.4
AAACGATTCG	1.03
AAACGATTGG	0.992
AAACGCTTGA	1.06
AAACGGAGAA	1.03
AAACGGGAAG	1.02
AAACGGGACC	1.09
AAACGGGAGG	1.01
AAACGGTCTG	0.995
AAACGTGCGT	1.07
AAACTAGACG	1.07
AAACTCGTGC	1.06
AAACTCTACC	1.17
AAACTCTATC	1.03
AAACTGTAGC	1.16
AAACTTCCAA	1.1
AAACTTGAAT	1.02

Sequence	switch fluorescence ratio
AAAGAACCGT	1.04
AAAGACTACT	1.03
AAAGAGAGGG	1.05
AAAGAGAGGT	0.999
AAAGAGCCGT	0.992
AAAGAGGCGT	1
AAAGAGTCGC	1.01
AAAGATGGGC	0.975
AAAGATTGAT	0.972
AAAGCATATG	0.985
AAAGCGACGC	1.01
AAAGCGAGGA	1.11
AAAGCGGGAT	0.996
AAAGCGTCTG	1.01
AAAGCGTCTT	0.996
AAAGGAATGC	1.33
AAAGGACGCT	1.03
AAAGGGCAAA	1
AAAGGGGCAG	0.953
AAAGGGGCAT	1.03
AAAGGTCGGC	1.04
AAAGTAAGGT	1.03
AAAGTACAGC	1.22
AAAGTAGAAG	0.945
AAAGTAGAT	1.04

Sequence	switch fluorescence ratio
AAAGTAGGAC	1.11
AAAGTATGAT	0.987
AAAGTATTGC	1.04
AAAGTCCTCG	0.943
AAAGTCGGAC	1
AAAGTCGGGG	0.98
AAAGTGAAGT	0.94
AAAGTGAATC	0.989
AAAGTGAGGC	0.987
AAAGTGATTC	1.02
AAAGTTAATT	1
AAAGTTCGAT	1.02
AAAGTTTTC	1.04
AAATAACTCC	1.2
AAATAATCCC	1.06
AAATACAACA	1.06
AAATACACCC	1.36
AAATACGGTA	1.21
AAATAGAGGT	1.04
AAATAGCTT	0.982
AAATATCGCA	1.04
AAATCACGAT	1.03
AAATCATCGC	1.07
AAATCATGCA	1.04
AAATCATGG	1

Sequence	switch fluorescence ratio
AAATCCAGTT	0.998
AAATCGAGTA	0.975
AAATCGTCCC	1.11
AAATCTACT	1.05
AAATCTTAT	1.02
AAATCTTTGG	0.954
AAATGAAACT	1.04
AAATGATCTG	0.902
AAATGCGA	1.01
AAATGCGCTC	1.04
AAATGGATT	1.02
AAATGTCTAC	1.04
AAATGTCTTA	0.96
AAATGTGGGC	1.06
AAATTAACGG	1.01
AAATTATTAG	0.998
AAATTCCAGG	1.25
AAATTCTTAA	1.02
AAATTGCGT	0.993
AAATTTACC	1.02
AAATTTATGC	0.989
AAATTTCTTG	0.962
AAATTTTCCG	1.04
AACAACACGA	1.22
AACAACCGAT	1.07

Sequence	switch fluorescence ratio
AACAAGCTAC	1.57
AACAATTGCA	0.994
AACACTAGTC	1.03
AACAGAGGCG	1.04
AACAGAGGGA	1
AACAGCTAGG	1
AACAGGAGGT	0.948
AACAGGATA	1.01
AACAGGCCTG	0.981
AACAGTTTTG	1
AACATAGAAA	1.01
AACATAGTGC	0.973
AACATCATG	1
AACATCGTGA	0.974
AACATGCTTC	0.974
AACATGGTGT	1.03
AACATTATGG	1.04
AACATTGCGG	1
AACCAAACAA	1.04
AACCAATATA	0.967
AACCACAAGA	1.05
AACCACGATG	1.11
AACCAGACGT	1.31
AACCAGAGAG	1.06
AACCAGCTAC	2.03

Sequence	switch fluorescence ratio
AACCAGGAAC	1.03
AACCCCAACC	1.08
AACCCCCTAC	1.31
AACCCCGACC	1.86
AACCCCGGGT	1.07
AACCCTGAAA	0.986
AACCGCAAGG	1
AACCGCTGCT	1.29
AACCGGCATG	1.03
AACCGGTCGA	1.01
AACCGTCATT	1.07
AACCGTGAAC	1.27
AACCGTGAGT	0.967
AACCTAATAG	1.02
AACCTAGGAT	0.969
AACCTATACT	1.32
AACCTCAGCA	2.12
AACCTGGCCG	1.13
AACCTGTACA	1.1
AACCTTTGGG	1.01
AACGAACACG	1.16
AACGAATTTG	0.988
AACGACTAGC	0.984
AACGACTGTA	1.04
AACGAGAAGA	1.02
